# ± gives the standard deviation of the averaged measurements. This is one part of the list.
# Test system: PfAP2-EXP AP2 domain (GST-tagged)
# Assay: gcPBM binding intensity (ln(normalized median fluorescence intensity)); higher = stronger DNA binding
# Summary of the method: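 GST-tagged P. falciparum DNA-binding domains, expressed in E. coli (about 25 μg on average), were applied for 1 h to an Agilent 4 × 180k array of primer-extended double-stranded 36-bp intergenic genomic probes plus negative controls. The binding buffer was 1× PBS with 1% milk, 0.2 mg/ml BSA, 0.5% salmon testes DNA and 0.03% Triton X-100. Bound protein was detected with Alexa488 anti-GST antibody and scanned at 488 nm. Binding intensity is the highest Masliner-normalised natural-log median intensity across replicate spots of either probe orientation.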
row,Sequence,gcPBM binding intensity (ln)
1,GATCTATTGAGTGATACATGCAGGAAAATTAAAAAC [TGCATGCA_site729],9.51 ± 0.27
2,AAAAAGAAAAAAGAAAGTACAAATATACACATTTTT [XGTACX_site3343],8.28 ± 0.47
3,TTTTTATTATAAGGTCGTACAATTGTAATTATTGTA [XGTACX_site1413],8.48 ± 0.35
4,TATGTATGTATGTATGTATGCATGTCTAACACCTAA [TGCATGCA_site360],8.73 ± 0.29
5,TTTTTTTTTTTATGCTCACACATTAATTTTTATACA [CACACA_site4527],8.63 ± 0.42
6,AAAAAACACGGACACACACACATATACATACATACA [CACACA_site5470],9.07 ± 0.3
7,ATTTATAGAGCTATATGTACATATATATATATTATT [XGTACX_site3704],8.62 ± 0.4
8,AATATAAATAATGTTAAACACACATACCGATATATA [CACACA_site8869],8.52 ± 0.43
9,AAAAGGTGGAAAAATGCATGCAGGCTATTCTATATA [TGCATGCA_site1034],9.73 ± 0.16
10,TTCCACCAATATATATGTACTTATAATATATATATA [XGTACX_site8700],9.39 ± 0.2
11,AATTACATATAATACTGTACGCTAATAAGAAAAAAA [XGTACX_site7413],8.77 ± 0.3
12,ATATAAATAAAGAAATATATATATATATATATATAT [GTGCAC_negctrl_site668],10.2 ± 0.88
13,AACGCTTATTAGTTGTTGTATATGTGTTCACATATT [CACACA_negctrl_site379],8.49 ± 0.34
14,TTTTCTATTTAATTGGTGCACTGATATATACACATA [GTGCAC_site9533],9.52 ± 0.33
15,ATATAACATATTAATAATATATTTATAATATGTTTA [GTGCAC_negctrl_site168],8 ± 0.38
16,AGGTTAAAAATAAATACACACATTTGATGTCTGTAT [CACACA_site6596],8.15 ± 0.3
17,TTATGTTATATATACACACACAAAAGAAAAAAAAAA [CACACA_site2987],8.43 ± 0.56
18,TTTTGAGAATATATGGGTACAAATAAATAAAAATAT [XGTACX_site1933],8.89 ± 0.4
19,AAATAATATTGAAAAGTGCATATTTTTGTTGATATA,8.48 ± 0.37

row,Sequence,gcPBM binding intensity (ln)
1,AAATTTAAATAATGTGCGCATCTTAATATATATAAG [GTGCAC_site9890],8.78 ± 0.38
2,TCTTATAACAAAAAAAAATAAAAAATAAAACTATAT [GTGCAC_negctrl_site11],8.43 ± 0.4
3,CATATAAATAGACACACACACACATATAAATAAATA [CACACA_site7156],8.76 ± 0.44
4,TTAGCAACTATTACTACACACATTTTTATATAATTT [CACACA_site1372],8.51 ± 0.46
5,CATATAATATATCAATGTACATATATATTTTATAAA [XGTACX_site5901],8.39 ± 0.36
6,TATAAATCAATATGTACACACATATACATGTTGAAT [CACACA_site7460],8.34 ± 0.3
7,TAATAAAAAAAGTGCACACACATAATATATATATAT [CACACA_site3340],9.74 ± 0.28
8,ATTATATACATATATATTGTATATACTATACATATG [XGTACX_negctrl_site545],8.44 ± 0.4
9,ATTGTCAAAACACGCACACACATATACATAATAACA [CACACA_site1742],8.79 ± 0.56
10,ATATATACCTATAACACACACATATTTATATTTATA [CACACA_site7257],8.61 ± 0.47
11,AAAAAACATACATACACACACATAAATATATATATT [CACACA_site2699],8.56 ± 0.55
12,TCTTATTTAAAAATAGCACACATTATATATATATAT [CACACA_site8916],10 ± 0.15
13,ATATATATATAAAGGAGTACATACATTAAAAAAAAA [XGTACX_site1095],9.505 ± 0.007
14,TCCTTGTTTGGTTTTTTTTTTTCTTCTTTTTTTTTT [CACACA_negctrl_site1355],8.62 ± 0.56
15,TTAAATGTTATATATTGTACATATAATATATGTATT [XGTACX_site1492],8.27 ± 0.19
16,TATGAAACGATATATGTGCACATGAGGGAATATAGA [GTGCAC_site9611],9.39 ± 0.3
17,ACACATACACATTAGGTGCACATAATTCAATATTAC [GTGCAC_site9862],9.09 ± 0.15
18,GATATATAACTTTTAACACACAAAAAAAAAAAAAAT [CACACA_site7653],8.46 ± 0.53
19,AAAGGTTTGCGTTGTGTGCACAAAATAAATATATAA,9.09 ± 0.39

row,Sequence,gcPBM binding intensity (ln)
1,TTATGAATATTGATGTATAAAAAAATATATATGTTA [XGTACX_negctrl_site390],8.29 ± 0.49
2,GAAAATTCATAAAAATGTACTTATTATATTATTTAT [XGTACX_site2169],8.14 ± 0.31
3,TAAAATTATGTAATAACACACATATACAATACATAT [CACACA_site1236],8.61 ± 0.3
4,ATTCTAAATATGTATATACACACTTTTAATATTCAT [CACACA_site4118],8.71 ± 0.4
5,TTTTTTATTTAAAGTAGTACTTTTTAGAAAACAAAA [XGTACX_site6759],8.07 ± 0.34
6,TTATTTTAAATTAACACATGCATAATATATGTATAT [TGCATGCA_site597],8.48 ± 0.23
7,TTTATGAAACAGTGCACACATAAAAATAAATACATA [CACACA_site5631],9.175 ± 0.035
8,AAAAAAATTTTAAAATGTACAAATTTTAATATATAT [XGTACX_site7628],8.55 ± 0.26
9,TTTTCAAAAATATACACACACATAAATATATGTATA [CACACA_site777],8.22 ± 0.34
10,CCATGTCAAACATTTGCACACAAAAAAATAAAAATT [CACACA_site4546],8.49 ± 0.5
11,AGGTTGAATATATATTTGTGATTATATTATTTTATT [CACACA_negctrl_site778],8.43 ± 0.42
12,TATATATATATATAATGTACAAACTCCTTTATATAT [XGTACX_site4545],10.1 ± 0.3
13,GTTTTTTTTATATATTGTACAAATAATATATTATAT [XGTACX_site29],9.02 ± 0.37
14,TCATTCAAAAAAAATCAACACACAGTTACATAGCTC [CACACA_site8700],8.64 ± 0.52
15,TTTTAAAACTACATTGGTACACAATAAAAAAAAAAA [XGTACX_site2793],8.72 ± 0.49
16,TTTTAAAAAAAAAAAATAAATAAATAAGATATTATC [CACACA_negctrl_site1791],8.22 ± 0.37
17,AAAAAAAAAAAAAAAGCACACATATAAATATGAATA [CACACA_site8391],8.41 ± 0.24
18,TCATATATATTATACACACACATATATAAATATATA [CACACA_site967],8.46 ± 0.45
